Read counts are not given, so values of variants with three or more changes are uncertain.

Sequences and labels used below:
B1: OR4K15 (parent)
chain: GUUAACGGUCAUAGGCCAUGGAAACUAGGAGCACCAUUUCGCUGCCAGUGAAGAAAUGAACAAAGAAAAUCUGGGCCAGGCAGGCAUCAAAAGAAAUAGUCUUGCGCUCAACCAGAAAGUCUGUAAUCAUUUUAAGGGUA

In the data set the parent is B1. Kind of data set: self-cleavage, relative activity (ratio to wild type); higher = more cleavage; in vitro, sequencing; the parent is a self-cleaving ribozyme.
G15U A68G A116G A118G: the self-cleavage was found to be 0.18.
With G14U C35U U102A U122C, the self-cleavage is 0.21.
In the case of A18G U19C U49A A63G U108A, the self-cleavage worked out at 0.14.
In the case of A13U A59G U103C, the self-cleavage came out at 1.11.
Regarding A13G U43C A64G A126G, the self-cleavage amounted to 0.14.
For A13U A33G U131A the value was 0.52; for A18G A92G A126G A140G, 0.44; for A13U U38C A56G A98G, 0.76.
On to A18G G20U A54G A89G U120A, for which the self-cleavage amounted to 1.04.
The result for G15A A117G G136U reads 2.02; that for G14A A23G A24G U72G A89U U132C, 0.13.
Turning to A18G A56G U132C, the self-cleavage came to 1.73.
The result for A18G A51G A140C reads 1.56; that for A13U A22G A47C A92G A116U, 0.9; that for A18G A47C U70C C88U A110G, 0.13.
The result for A13U G29U A52G reads 0.97; that for G15A A60U C113U, 0.08; that for A13G U49C A110G, 0.28.
The result for A18G A27G A117G reads 2.04.
Turning to G14A A22U U37C A69G, the self-cleavage is 0.92.
In the case of A18G A52G G53A A59U U102A G136U, the self-cleavage was found to be 1.5.
In the case of A18G A22G A56U, the self-cleavage is 0.57.
A13G U131C U132C: the self-cleavage was determined as 0.37.
As to A18C U49C A60G, the self-cleavage turned out to be 0.67.
Take C16G A24G A62U A110G: the self-cleavage amounted to 0.22.
The result for A13U A51G A54G U72C A89G A114U U131C reads 0.02; that for A18G A54G A67C, 1.81.
For A18G A24U U132C the value was 1.52.
As to A13U U37C A47U A135C, the self-cleavage worked out at 1.45.
For the variant A18G G20C U120C, the self-cleavage was 0.29.
Regarding C17U A66G A94G, the self-cleavage was determined as 0.8.
As for A18G A62G A64G U72A A94U U131C, the self-cleavage is 0.17.
The result for A18G A33G A36U A56G A111G reads 0.05; that for G14A A22G A63U U108C U130C, 0.01.
Turning to A18G A23G U37C A59G A118U U120C, the self-cleavage worked out at 0.1.
For A13U A82G A92G U108C the value was 0.03.
The result for C16G A51G A86U A114U reads 0.13; that for A13U U19A U72C U127C, 0.41; that for G14A G20A A62G A118G, 0.83.
For A18G A64G A135G the value was 1.18.
Consider G14A A24G U108A U122C A140G, for which the self-cleavage worked out at 0.
A18G A60U A91C: the self-cleavage turned out to be 0.95.
Consider G15U A62U U131C, for which the self-cleavage stood at 1.4.
For G14A A86G A117G the value was 1.96; for G14A A91G A126G, 0.33; for A18G A33G U72C, 0.27.
Turning to A18G G29A A33U A78U A118G U133C, the self-cleavage was 0.42.
For A18G A64U U87A the value was 1.1; for A18G A52G A116G, 0.86; for G15A A54G A62G U127C, 0.76.
The result for A18G A110G U131C reads 0.05; that for A18G A30U A91G, 1.92.
The result for G15A A94G A134G reads 1.28.
A18G U43A U102C: the self-cleavage stood at 1.17.
As for G15A U37C U43C A60U G84U, the self-cleavage was determined as 0.72.
The result for C16U A89G A91G reads 1.29; that for A18G U38C A92G U133C, 1.93.
The result for C17U C107U A125G U127C reads 0.01; that for A18G A78G U87C U102C, 0.34.
Take A13G U49C A52G U72C A78G U87C A96G: the self-cleavage was found to be 0.51.
The result for C17U A24G U39C C76U A90G U97A U120C reads 0.13; that for C17U A24U A69G C85U A94G A96U U132C, 0.38.
As to A18G A36G G44A, the self-cleavage came to 1.11.
For the variant A18G A52U A62G A134G, the self-cleavage turned out to be 1.42.
Regarding C16U A24G G28A A33G G44A U70C A94G A125G U131C, the self-cleavage stood at 0.02.
For G14A U70C A90G the value was 0.52.
Take A18G A90G U100A A111G: the self-cleavage is 0.02.
In the case of A18G A30G U97C A110G, the self-cleavage stood at 0.12.
A18G A78C A95C A110G U139G: the self-cleavage worked out at 0.06.
The result for A18G U100C A117G reads 2.71; that for A18G A36G A66G U100C G104A, 0.09; that for A13U U26A A55G A110G U131C, 0.62.
For G15A A82G A116G, the self-cleavage amounted to 0.21.
As for G15A A23G A67G A78G, the self-cleavage came to 0.27.
The result for A13U A118G U131C reads 0.67; that for A18G U38C A90G A111G, 0.05.
For A18G U39C A51G the value was 0.91; for A18G U49A A62U, 1.57.
For A13U A22U U39C A47G A60G the value was 0.71; for A18G A78U U130A, 0.08.
A18G A23G G31C U108C U132C: the self-cleavage stood at 0.01.
With C17U A27G A55G U72A A111G, the self-cleavage was determined as 0.02.
The result for A13U U49C A90G A95G U103C reads 0.67; that for A13U U38A U39C A86G A89U, 1.76; that for A18G A62U A67G A78G A86U A110G, 0.07.
For A18G U37C C45U U87C the value was 1.08.
As for A18C G48C A82G A126G, the self-cleavage came out at 0.21.
The result for A18G A24G A54G U57C A68G A129G reads 0.44.
Turning to A18G G80A A117G, the self-cleavage stood at 0.4.
As for G15U A27G G74A A140G, the self-cleavage was 0.26.
The result for G14A C101G A125G A126U reads 0.05; that for A18G A63G A78G A95U U133A, 0.23; that for A13U A51U U102C A111G A114G, 0.
As for A18G A56G A66G, the self-cleavage turned out to be 1.08.
With C17U A51G A92G, the self-cleavage was found to be 1.4.
For C16U C61U A135G the value was 1.67; for A13U A91G U108C, 0.04; for A18G A52G A89G, 1.25.
Consider A13U A51G A55G U120C, for which the self-cleavage is 0.58.
In the case of A18G A36C A52G A110G G115A, the self-cleavage was 0.02.
On to A18C U37C A111U, for which the self-cleavage stood at 0.05.
As to C17A U39C U49C A51G A66G U70C A90G A111G, the self-cleavage is 0.
The result for G15C U108A U122C reads 0.01.
The result for A18G A30G U102C reads 1.3.
For A18G A67G A69G A89G A125G the value was 0.38.
Consider G14A A118G U127C, for which the self-cleavage was determined as 0.24.
The result for G14A A24U A51U reads 1.34; that for A13U A62U A89G U120A, 1.85; that for A18C U102C U120C, 1.32.
For A18G U39C A91G A94U the value was 2.03; for A18G U37C A89U A98G, 1.02; for G15A A60G U133A, 0.51.
With A13U A24G G74A, the self-cleavage was 0.62.
The result for G15U A68G A82C C105U reads 0.02.
Turning to C17G U19C U122C, the self-cleavage was 0.22.
For C16A U26C G53A A126G the value was 1.45; for G15A A18G A126G, 0.72; for A18G A24G A30G A36U A55C U124C, 0.49.
For A18G A54G U70G, the self-cleavage turned out to be 1.5.
With A18G U49A G123C, the self-cleavage came to 0.43.
For G15A U72C A82G the value was 0.14; for A18G U26C A56C U102C U124C, 1.44; for A13U A54G A56G A59C A78U, 0.34.
For G14A A59G A69G C71U A118G the value was 0.05; for A18G A55G A68G U133C, 1.69.
For A13U A47G A60G U72C A114C the value was 0.04; for A18G A27G A116U A118G, 0.07; for A13U A52U A67G A117G A135G, 0.98.
For the variant A18G A23G C35A U132C, the self-cleavage is 0.
With C17A G21A U103A A114G A117G, the self-cleavage was 0.04.
For C16U U39C A59C U87A the value was 1.08; for G15A A18G A67G A110U, 0.29.
The result for G15A A23G U108C U130C reads 0.03; that for A13U U120C U131C A135G, 1.12.
For A18G A30G A56G the value was 0.95; for A18G A22G A90G, 1.03; for C16U U72A U132C, 0.46.
As to A18G A24C A54U A90G, the self-cleavage was determined as 1.22.
C16U U19G U43C A111G: the self-cleavage amounted to 0.12.
For A18G U39A A51G A126U U127C the value was 0.59; for A13U A96G U124C, 0.75.
The result for A18G C45U U124A reads 0.51; that for A18G A60G U122C U124C, 0.38.
As for A13U A54U A68G U132C, the self-cleavage stood at 1.69.
Regarding A18G A52G A94U A116U, the self-cleavage stood at 0.57.
Consider G14A A52U U120C A134G, for which the self-cleavage is 0.29.
A18G A30G U43G U127C: the self-cleavage was 1.1.
On to A18G A55G U133C, for which the self-cleavage was 1.78.
The result for A13U C17U A52G A68U reads 0.72; that for C16U U19A A27U A78G, 0.07.
For A18G A24G U124C the value was 0.48.
As for A13G U43C U57C, the self-cleavage worked out at 0.
For A13G U49C U72C A82U, the self-cleavage amounted to 0.41.
As for C16A U70C A86G U122C, the self-cleavage amounted to 0.07.
The result for C17U A86G U100C U122C reads 1.65.
Take A18G U19A U37C U103C: the self-cleavage amounted to 0.34.
Turning to A13U U70C A111G, the self-cleavage came out at 0.03.
Turning to C16A A63G U120C, the self-cleavage was found to be 0.78.
For A18G U49C A51U A91G U100C the value was 1.5; for A13U C16U A54G A69G U124C, 0.66.
For A18G A62U U122C A134G the value was 0.67.
For the variant A13G U72C C109U, the self-cleavage was 0.37.
For A18G U57C A66G A92G the value was 0.61; for G15U A22G U39C A56G U57C U127A, 1.73.
Regarding A18G A24U A78U G99C A116G, the self-cleavage is 0.01.
For G14A U37C A110G A135G, the self-cleavage is 0.09.
The result for A18G U38C A94G A111G reads 0.09.

Source of the values: the RNAGym collection of RNA variant scans (doi:10.7554/elife.90254).
